Test results from publication PMC8280134.

Molecular target: HuNoV GII.4 Sydney 2012 virus-like particle (human norovirus GII.4 (Sydney 2012))

B1: NORO-320 recombinant Fab (Fab, V domains shown)
VH: QVQLVQSGPEVKKPGSSVKVSCKASGGTVSSYAISWVRQAPGQGLEWMGGIIPIFDTTNYAQKFQGRVTITADESTGTSDMELSSLRSEDTAVYYCARDRVPSYSPSRRFSTKGAMWGKYGMDVWGQGTLVTVSS
VL: [skipping about 120 residues]
- blocking of GII.4 Sydney 2012 VLP binding to porcine gastric mucin (PGM) glycans: not blocked: > 1000 nM
